The text below walks through data of the supplement of paper PMC11417369.

± gives the standard deviation of the averaged measurements. Some of the results follow.

For the test, the system named is PfAP2-LT AP2 domain (GST-tagged). Briefly: gcPBM binding intensity (ln(normalized median fluorescence intensity)); higher = stronger DNA binding. An outline of the steps:
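Probes on an Agilent 4 × 180k array were primer-extended, double-stranded and 36 bp long, taken from intergenic genomic regions, with negative controls added. GST-tagged P. falciparum DNA-binding domains from E. coli, about 25 μg on average, were applied to the array for 1 h in 1× PBS containing 1% milk, 0.2 mg/ml BSA, 0.5% salmon testes DNA and 0.03% Triton X-100. Binding intensity, obtained after Alexa488 anti-GST antibody detection and a 488 nm scan, is the highest Masliner-normalised natural-log median intensity across replicate spots of either probe orientation.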
Take “CAAAAGCGATACGGCACACATTTCCTGTTTAAATGA [CACACA_site5519]”: the “gcPBM binding intensity (ln)” value came to 8.99 ± 0.58.
Next, “TTAATTTTTAGAAGAACACACACATATATATTATGA [CACACA_site7969]”: 8.87 ± 0.36; “TTATATATTTTATTATTTATAATCTTTTTTTTATTT [CACACA_negctrl_site112]”: 8.54 ± 0.62.
Next, “TTATATTTCAATTAAACATGCATTTTTGTGTAGCAC [TGCATGCA_site214]”: 8.66 ± 0.4; “TCATATAGATTATACACACACATATATAGATATATA [CACACA_site6587]”: 9.27 ± 0.33; “TTTATTTATGTTGAAACATGCAAAAAGTTATTTATA [TGCATGCA_site716]”: 8.23 ± 0.4.
The same measure for “TTCAAAAGCCGGATAACATGCAGTAGTAGAACAAAC [TGCATGCA_site413]”: 9.16 ± 0.32; for “ACTCCATAATATTGATGTACTATAATGCATTTATTT [XGTACX_site5562]”: 9.06 ± 0.42.
On to “TTATAGAATTTATTTACACACAAACATTTATACTTT [CACACA_site7592]”, for which the “gcPBM binding intensity (ln)” value turned out to be 8.95 ± 0.32.
As to “TATTTATTTTCATATAGTACTTTTTTCAGGCATATA [XGTACX_site6691]”, the “gcPBM binding intensity (ln)” value was 8.6 ± 0.41.
With “TGGTATATAAAACACACACACATATGTATTTATATA [CACACA_site4665]”, the “gcPBM binding intensity (ln)” value was 9.44 ± 0.28.
Next, “TTTTGCCTTTCTACTTGTACTTAAAATATTATAATT [XGTACX_site5483]”: 8.85 ± 0.41.
Consider “TTGTTTTTTTTTTCTATAAGCATAAAAATGATATAA [XGTACX_negctrl_site356]”, for which the “gcPBM binding intensity (ln)” value was 8.09 ± 0.35.
Next, “TTTCTGTGTTTTGGTTGTACACACGCTACATTATAT [XGTACX_site5669]”: 9.6 ± 0.39; “TTTATTTATTATTAAAGTACTAAATCATATAATTAT [XGTACX_site5727]”: 8.26 ± 0.51.
As to “AAATTAAAAAAATAATGTACATGTATTTATTATGTA [XGTACX_site2419]”, the “gcPBM binding intensity (ln)” value turned out to be 8.74 ± 0.42.
On to “TTTTATTTCTTTGCACCATTTTAAATACAAACAAAT [CACACA_negctrl_site1553]”, for which the “gcPBM binding intensity (ln)” value is 8.56 ± 0.43.
The same measure for “AGTATTCACTTAATATGTACATATTTATTATAAGAG [XGTACX_site3434]”: 8.63 ± 0.4; for “GCTTTTAAAATAATTGGTACACATGTATAAATTCAA [XGTACX_site2327]”: 8.69 ± 0.46.
With “TAAAACAATACTTTGTGCTTCTCTGGTTTTTTTTTT [GTGCAC_negctrl_site284]”, the “gcPBM binding intensity (ln)” value stood at 8.62 ± 0.46.
Next, “CACAAAAAGAAACACACACACATATATATATATATA [CACACA_site999]”: 10 ± 0.37; “ATTCTAAATAATAAGAGTACAAATAATATGGAGAAG [XGTACX_site5209]”: 8.84 ± 0.38; “TGCTCATTCCTGTCATGTACATATTATATATATATA [XGTACX_site6890]”: 9.14 ± 0.33.
In the case of “GAAAATATGTAATAGTGTACACATATATATGTATAT [XGTACX_site306]”, the “gcPBM binding intensity (ln)” value stood at 9.07 ± 0.36.
Next, “ATATGAACATTTACATGTACATGTAAATGTAACACT [XGTACX_site4574]”: 8.98 ± 0.34; “CCCGTAAATTATGAGTGTACGTTATTTTTTAAAATG [XGTACX_site3946]”: 8.69 ± 0.4; “ACATATACATATATATGTACATAAATATATATATAT [XGTACX_site8630]”: 9.06 ± 0.31.
Next, “AATTATATATTTGAGAGTACATATGTAATGTTTATA [XGTACX_site6970]”: 8.79 ± 0.42; “GTGCATATCTGATATACACACAATAAAATAGTATGT [CACACA_site7203]”: 9.19 ± 0.4.
The same measure for “CATATATTATTTATACGTACTAATAAAATAAATCAA [XGTACX_site1030]”: 8.62 ± 0.45; for “TATGATACATAAATATGTACGTATAATATATATTTA [XGTACX_site7002]”: 8.78 ± 0.36; for TGCAAGCTTATATAGGTGCACATGTATACGTGTTCA: 9.24 ± 0.34.
Take “TATTAAAATTAAAAAAAAAAAAAAAAGCAATAAAAA [XGTACX_negctrl_site426]”: the “gcPBM binding intensity (ln)” value is 8.22 ± 0.65.
Turning to “TATATACACAAACACACACACACATACACCCACATA [CACACA_site8504]”, the “gcPBM binding intensity (ln)” value was 10.2 ± 0.16.
Next, “TATGTAGTCACAAGGTGTACACTTTAACAAATTATG [XGTACX_site8792]”: 8.77 ± 0.38.
The same measure for “TTCTAACTTTTAAACACACAAATATAAATAAGTATA [CACACA_site7473]”: 8.47 ± 0.36.
Next, “GAACGTATCATGTGTACACACAAATTGTTTTTTTTT [CACACA_site2020]”: 9.31 ± 0.43; “AAGAATAATAATAAATGTACACAATATTATATATAT [XGTACX_site5525]”: 8.86 ± 0.4.
As for “AAATGAACAAGTGGCACACACACATTATAACTAATT [CACACA_site9048]”, the “gcPBM binding intensity (ln)” value stood at 9.43 ± 0.37.
Consider “TATATAATTATAAGAACACACATATATATATATATA [CACACA_site2472]”, for which the “gcPBM binding intensity (ln)” value turned out to be 9.6 ± 0.16.
Next, “AAATTTGAAGAATATTGTACGCATAATAATTAAATA [XGTACX_site4300]”: 8.79 ± 0.46; “TGTATGAAATATATTACACACATATAAAATCTATAT [CACACA_site6514]”: 8.96 ± 0.37.
The same measure for “TTGATGTTGGTAGGATGTACGGTACCGGTAAAGTTT [XGTACX_site7705]”: 8.85 ± 0.43; for “TTTTTAATTTTTTGTTGTACATATAATATATTATTA [XGTACX_site4903]”: 8.54 ± 0.64.
